Test results from PubChem BioAssay AID504832 (National Center for Advancing Translational Sciences (NCATS), 2011).
Screen size: about 310,000 compounds; about 18,000 (5.8%) were called active. The inconclusive results got no clear call from the source; some entries with a clear call stand among them for comparison. Calls follow the shape of the dose curve; as a rule, active = well fitted inhibition curve with a large enough effect; inconclusive = small, poorly fitted or top-dose-only effect, or another doubt; inactive = no such curve, though single readings can be large or run the other way. No potency is given beside an inconclusive call; the fits are too rough.

assay: Primary qHTS for delayed death inhibitors of the malarial parasite plastid, 48 hour incubation; settings: P. falciparum luciferase growth in erythrocytes; series mostly up to 28.7 µM
In short: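 A one-generation exposure of luciferase-tagged malaria parasites in RPMI 1640/Albumax erythrocyte culture, 37 C and 5% CO2. Inhibition is inferred from decreased luminescence after adding detection reagent.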
Potency is read from the fitted curve at half-maximal effect; tags tell the direction and shape of the fitted curve.

Q: With `Cc1c(C(=O)OCC[N+]2(C)CCCCC2)oc2ccccc12` as the compound, how does the Potency read?
A: inconclusive [inhibitor, single point]

Q: With `CCOCCCN1C(=O)C2C(C(=O)Nc3ccc(OCC)cc3)C3C=CC2(O3)C1C(=O)NC1CCCCC1` (stereo unspecified) as the compound, how does the Potency read?
A: inconclusive [inhibitor, partial curve, poor fit]

Q: With `CC(=O)c1c(C)[nH]c(C(=O)Nc2ccc(Cl)c(S(=O)(=O)N(C)C)c2)c1C` as the compound, how does the Potency read?
A: inconclusive [inhibitor, single point]

Q: With `O=C(O)CC1(CC(=O)Nc2cc3ccccc3cn2)CCCCC1` as the compound, how does the Potency read?
A: inactive

Q: For `O=C(Oc1c(CN2CCOCC2)cc(Cl)c2cccnc12)c1ccc(F)cc1`, which Potency is on record?
A: active: 4.65 µM

Q: With `CCC(C)NCCOCCOc1cc(C)c(Cl)c(C)c1` (stereo unspecified) as the compound, how does the Potency read?
A: inconclusive [inhibitor, single point]

Q: Which Potency does the source give for `Cc1ccc(S(=O)(=O)CCC(=O)Nc2cccc(C)c2)cc1` here?
A: inactive

Q: Which Potency does the source give for `CN(C)C1(CNC(=O)c2ccc(NS(=O)(=O)c3ccc(Cl)c(Cl)c3)cc2)CCCCC1` here?
A: active: 11.7 µM

Q: Which Potency does the source give for `CCOc1ccc(Nc2nc(N)nc(CSC(=S)N3CCN(c4ccccc4)CC3)n2)cc1` here?
A: active: 11.7 µM

Q: Which Potency does the source give for `COc1ccccc1CNC(=O)CSc1nn2c(=O)c(C(C)(C)C)nnc2s1` here?
A: active: 2.94 µM

Q: With `Cc1cccc(NC(=O)CSc2nc3ccccc3nc2N2CCCCC2)c1` as the compound, how does the Potency read?
A: active: 13.1 µM

Q: For `Cc1cc2[nH]c(=O)c(=O)[nH]c2cc1S(=O)(=O)NC1CCC(C)CC1` (stereo unspecified), which Potency is on record?
A: inconclusive [inhibitor, partial curve, poor fit]

Q: Which Potency does the source give for `COc1ccccc1C(=O)NNC(=O)c1ccc(F)cc1` here?
A: inactive

Q: With `COc1ccccc1C(c1nnnn1C(C)(C)C)N1CCCc2ccccc21` (stereo unspecified) as the compound, how does the Potency read?
A: inconclusive [inhibitor, partial curve]

Q: For `CN1CCN(C(=O)c2ccc3c(c2)N(Cc2ccc(Cl)cc2)C(=O)c2ccccc2S3=O)CC1` (stereo unspecified), which Potency is on record?
A: active: 10.4 µM

Q: With `Cc1cc(-c2nnc(SCC(=O)Nc3ccc(S(N)(=O)=O)cc3)n2N)n[nH]1` as the compound, how does the Potency read?
A: inactive

Q: For `COc1ccc(C(=O)/C(C#N)=N/Nc2ccc([N+](=O)[O-])cc2)cc1`, which Potency is on record?
A: active: 13.1 µM

Q: With `CC(=O)c1cccc(NC(=O)Nc2nc(C)cc(C)n2)c1` as the compound, how does the Potency read?
A: inactive

Q: Which Potency does the source give for `CN(C)c1ccc(C(=O)Nc2cccc(S(=O)(=O)N3CCCC3)c2)cc1` here?
A: inactive

Q: With `COc1ccc(Cn2nnnc2C(c2ccccc2Cl)N2CCN(C3CCCC3)CC2)cc1` (stereo unspecified) as the compound, how does the Potency read?
A: active: 14.7 µM

Q: Which Potency does the source give for `Cc1nc2ccc(Br)cn2c(=O)c1Cl` here?
A: inconclusive [inhibitor, single point]

Q: Which Potency does the source give for `COc1ccc(NC(=O)CC(C)NCCCN2CCCC2=O)cc1` (stereo unspecified) here?
A: inactive

Q: For `COc1ccc(NC(=S)N/N=C2\CC(C)(C)Oc3ccc(OC)cc32)cc1`, which Potency is on record?
A: inconclusive [inhibitor, single point]

Q: Which Potency does the source give for `O=C(c1ccco1)N(Cc1ccc([N+](=O)[O-])cc1)c1ccc(Br)cc1` here?
A: inconclusive [inhibitor, single point]

Q: With `COc1ccc2nc(/N=C(\N)NC(=O)N3c4ccccc4Sc4ccccc43)nc(C)c2c1` as the compound, how does the Potency read?
A: inconclusive [inhibitor, single point]

Q: Which Potency does the source give for `O=C(O)[C@H](CC(=O)N1C[C@H]2CCCC[C@H]2C1)Cc1ccccc1` here?
A: inactive

Q: With `CCOc1ccc(CC(=O)Nc2c3c(nn2C(C)(C)C)CS(=O)(=O)C3)cc1` as the compound, how does the Potency read?
A: inactive

Q: For `COc1ccc(C(=O)Nc2cnc3ccccn3c2=O)cc1`, which Potency is on record?
A: inactive

Q: For `CCCOc1ccc(C(=O)Nc2ccc(S(=O)(=O)NC3=NCCCCC3)cc2)cc1`, which Potency is on record?
A: active: 5.86 µM

Q: Which Potency does the source give for `CCn1ccc2c(OCC(=O)NCCc3ccc(OC)c(OC)c3)cccc2c1=O` here?
A: inconclusive [inhibitor, single point]

Q: With `CCOC(=O)c1sc(NC(=O)COC(=O)Cn2cnc3ccccc32)c(C(=O)OCC)c1C` as the compound, how does the Potency read?
A: inconclusive [inhibitor, single point]

Q: With `COc1ccc(C2=NN(C(=O)CSc3cn(C)c4ccccc34)C(c3ccc(OC)cc3)C2)cc1` (stereo unspecified) as the compound, how does the Potency read?
A: inconclusive [inhibitor, single point]

Q: For `CCCCCCn1c(N2CCC(C(N)=O)CC2)nc2c1c(=O)n(C)c(=O)n2C`, which Potency is on record?
A: inconclusive [inhibitor, partial curve]

Q: For `COc1ccc(CC2(CO)CCN(S(=O)(=O)c3sccc3C)CC2)cc1`, which Potency is on record?
A: inconclusive [inhibitor, single point]

Q: For `CC(=O)c1c(C(C)=O)c(C)n(-c2nc(-c3cccs3)c(C)s2)c1C`, which Potency is on record?
A: inconclusive [inhibitor, single point]

Q: With `CCOc1ccccc1N1CCN(S(=O)(=O)c2cc(C)ccc2OC)CC1` as the compound, how does the Potency read?
A: inactive

Q: Which Potency does the source give for `CC1(C)CC(NC(=O)c2cccc(S(=O)(=O)Nc3cccc(Cl)c3)c2)CC(C)(C)N1` here?
A: active: 13.1 µM

Q: For `COc1ccc(-c2csc3ncnc(N4CCN(S(=O)(=O)c5cccc(C(F)(F)F)c5)CC4)c23)cc1`, which Potency is on record?
A: active: 10.4 µM

Q: For `CCn1c(O)c(C=Nc2ccccc2)oc1=S`, which Potency is on record?
A: inconclusive [inhibitor, single point]

Q: Which Potency does the source give for `Cc1ccccc1N1CCN(C2CCCN(C(=O)c3csc(C(C)C)n3)C2)CC1` (stereo unspecified) here?
A: inactive

Q: For `COc1ccccc1CN1CC(C(=O)N(C)CCc2nc3ccc(F)cc3[nH]2)CCC1=O` (stereo unspecified), which Potency is on record?
A: inactive

Q: For `Nc1n[nH]c(N)c1N=Nc1ccccc1`, which Potency is on record?
A: inactive

Q: For `NC(=NCCc1ccccc1)NS(=O)(=O)c1ccccc1F`, which Potency is on record?
A: inactive

Q: With `COCCNC(=O)CN1C(=O)/C(=C/c2ccccc2)Oc2ccc(C(C)(C)C)cc21` as the compound, how does the Potency read?
A: inconclusive [inhibitor, partial curve]

Q: With `Cc1ccc(C)c(N2CCN(C(=O)c3ccc(N4CCOCC4)c([N+](=O)[O-])c3)CC2)c1` as the compound, how does the Potency read?
A: inconclusive [inhibitor, partial curve, poor fit]

Q: For `Cc1n[nH]c(C)c1CCNC(=O)C1CCC(=O)N(CCc2cccc(F)c2)C1` (stereo unspecified), which Potency is on record?
A: inactive

Q: With `COc1ccc(OC)c(C(=O)c2ccc(C(=O)N3CCN(Cc4csc(C)n4)CC3)cc2)c1` as the compound, how does the Potency read?
A: inconclusive [inhibitor, single point]

Q: With `O=c1[nH]c2cc3c(cc2cc1C(c1nnnn1Cc1ccccc1)N1CCN2CCCC2C1)OCCO3` (stereo unspecified) as the compound, how does the Potency read?
A: inconclusive [inhibitor, single point]

Q: For `Cn1cc(C(=O)c2ccc(Cl)cc2Cl)cc1C(=O)N/N=C(\N)COc1ccccc1`, which Potency is on record?
A: inconclusive [inhibitor, single point]

Q: With `CCOc1ccccc1N1CCN(C(=O)c2ccc(S(=O)(=O)Nc3ccccc3)cc2)CC1` as the compound, how does the Potency read?
A: inconclusive [inhibitor, single point]

Q: With `COc1cccc(NC(=O)C2CCC(CNC(=O)[C@@H]3Cc4ccccc4CN3)CC2)c1` (stereo partly specified) as the compound, how does the Potency read?
A: inconclusive [inhibitor, single point]

Q: For `CN(C)c1nnnn1-c1ccc(Oc2ccccc2)cc1`, which Potency is on record?
A: inconclusive [inhibitor, partial curve, poor fit]

Q: With `CCOC(=O)c1sc2nc(CC(=O)OC)nc(NCc3ccco3)c2c1C` as the compound, how does the Potency read?
A: active: 2.62 µM

Q: For `CCOC(=O)c1c(C(C)(C)C)oc2ccc(OCC#N)cc12`, which Potency is on record?
A: inconclusive [inhibitor, partial curve, poor fit]

Q: With `Nc1ccccc1SC1CC(=O)N(Cc2ccccc2)C1=O` (stereo unspecified) as the compound, how does the Potency read?
A: inactive

Q: For `COc1ccc(Nc2c3c(nc4ccccc24)CCCC3)cc1OC`, which Potency is on record?
A: inactive

Q: Which Potency does the source give for `Cc1ccc(-n2c(SCC(=O)Nc3ccc4c(c3)OCO4)nnc2-c2cccs2)cc1` here?
A: inconclusive [inhibitor, single point]

Q: Which Potency does the source give for `Cc1ccc(NCC(=O)N/N=C/c2c[nH]c3ccccc23)cc1` here?
A: inconclusive [inhibitor, partial curve, poor fit]

Q: For `CCC1(c2ccc(F)cc2)NC(=O)N(CC(=O)Nc2ccc(S(N)(=O)=O)cc2)C1=O` (stereo unspecified), which Potency is on record?
A: inactive

Q: Which Potency does the source give for `COC(=O)[C@@]1(Cc2ccc(OC)cc2)[C@H]2c3cc(C(=O)N4CCCC4)n(Cc4ccc(C)o4)c3C[C@H]2CN1C(=O)c1ccccc1` here?
A: inconclusive [inhibitor, full curve]

Q: With `COc1ccc(OC)c(NC(=O)CCNS(=O)(=O)c2cccc3nsnc23)c1` as the compound, how does the Potency read?
A: inactive

Q: With `COc1ccc(/C=N/Nc2nc(-c3cccc(S(=O)(=O)N4CCCC4)c3)cs2)cc1OC` as the compound, how does the Potency read?
A: active: 9.28 µM

Q: Which Potency does the source give for `O=C(Nc1ccc(N2CCOCC2)c(Cl)c1)c1ccc2c(c1)OCCO2` here?
A: inconclusive [inhibitor, single point]

Q: With `CCOC(=O)c1c(NC(=O)C2C3CCC(O3)C2C(=O)O)sc(C)c1-c1ccc(F)cc1` (stereo unspecified) as the compound, how does the Potency read?
A: inconclusive [inhibitor, partial curve, poor fit]

Q: Which Potency does the source give for `Cc1ccc(Cl)c(N/C=C/C(=O)c2ccccc2)c1` here?
A: inactive

Q: Which Potency does the source give for `O=C(COc1ccc2ccccc2c1)N1CCN(Cc2c[nH]c3ccccc23)CC1` here?
A: active: 11.7 µM

Q: For `CCC(C(=O)NCc1ccco1)N(C(=O)CNS(=O)(=O)c1ccc(C)cc1)c1ccccc1OC` (stereo unspecified), which Potency is on record?
A: active: 4.15 µM

Q: Which Potency does the source give for `O=C1C(NS(=O)(=O)c2cccs2)=C(N2CCN(Cc3ccccc3)CC2)C(=O)c2ccccc21` here?
A: inconclusive [inhibitor, full curve]

Q: For `Cc1c(NC(=O)CN2CCN(c3ccc(O)cc3)CC2)c(=O)n(-c2ccccc2)n1C`, which Potency is on record?
A: inconclusive [inhibitor, full curve, poor fit]

Q: Which Potency does the source give for `Cc1cccc(C(=O)NC2CCN(S(=O)(=O)c3ccc(F)cc3)CC2)c1` here?
A: inconclusive [inhibitor, full curve, poor fit]

Q: With `S=c1[nH]c(-c2ccccc2)cn1-c1ccccc1` as the compound, how does the Potency read?
A: inactive
